# Test results published in article PMC4336329 (PLoS ONE, 2015).
# The campaign covered roughly 310,000 compounds. About 2,200 (0.71%) showed an effect of 50% or more. Effects have a minus sign here. The list shows a part of the results.
# Biological target: human ether-à-go-go-related gene (hERG) potassium channel (human, UniProt Q12809)
# Experiment: primary screen, population patch clamp on CHO cells stably expressing hERG
# Sequence of human ether-à-go-go-related gene (hERG) potassium channel (Q12809 whole entry, looked up): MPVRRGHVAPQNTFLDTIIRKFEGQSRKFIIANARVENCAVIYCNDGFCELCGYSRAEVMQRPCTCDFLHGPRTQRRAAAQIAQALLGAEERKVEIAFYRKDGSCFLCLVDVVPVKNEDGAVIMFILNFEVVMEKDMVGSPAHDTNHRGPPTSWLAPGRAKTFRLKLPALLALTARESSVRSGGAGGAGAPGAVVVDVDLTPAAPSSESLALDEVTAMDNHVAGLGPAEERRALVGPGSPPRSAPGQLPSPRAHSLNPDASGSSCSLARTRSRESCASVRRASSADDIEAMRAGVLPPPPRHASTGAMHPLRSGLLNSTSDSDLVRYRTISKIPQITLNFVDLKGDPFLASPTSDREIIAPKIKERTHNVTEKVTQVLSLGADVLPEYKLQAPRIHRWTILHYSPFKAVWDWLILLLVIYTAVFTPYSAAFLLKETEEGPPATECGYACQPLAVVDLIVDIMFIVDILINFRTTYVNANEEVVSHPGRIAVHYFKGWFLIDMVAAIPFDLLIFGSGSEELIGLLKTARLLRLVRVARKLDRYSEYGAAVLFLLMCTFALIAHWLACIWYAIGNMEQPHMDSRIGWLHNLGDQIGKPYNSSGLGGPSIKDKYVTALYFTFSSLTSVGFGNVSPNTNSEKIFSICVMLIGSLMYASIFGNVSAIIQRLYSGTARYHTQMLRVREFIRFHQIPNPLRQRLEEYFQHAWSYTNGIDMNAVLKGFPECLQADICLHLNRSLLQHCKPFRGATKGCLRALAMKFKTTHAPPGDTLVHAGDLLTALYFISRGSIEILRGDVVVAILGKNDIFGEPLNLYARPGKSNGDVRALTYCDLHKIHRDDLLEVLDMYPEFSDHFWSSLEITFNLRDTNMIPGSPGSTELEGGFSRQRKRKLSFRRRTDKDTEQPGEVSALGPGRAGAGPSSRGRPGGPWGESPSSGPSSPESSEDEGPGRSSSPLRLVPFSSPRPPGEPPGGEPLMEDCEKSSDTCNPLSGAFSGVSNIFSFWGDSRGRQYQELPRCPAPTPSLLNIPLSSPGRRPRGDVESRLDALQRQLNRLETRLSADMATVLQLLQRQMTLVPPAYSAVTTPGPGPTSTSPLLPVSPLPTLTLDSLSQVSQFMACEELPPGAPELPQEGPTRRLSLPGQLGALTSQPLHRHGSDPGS
row,SMILES,"hERG current change (%, negative = inhibition) at 1uM [%]"
1,COc1ccc(/C=C/C(=O)N2c3ccccc3Sc3ccc(C(F)(F)F)cc32)cc1,-0.476
2,CCOc1ccccc1C(=O)NCC(=O)Nc1ncccc1C,20.9
3,Cc1c(N=Cc2ccco2)c(=O)n(-c2ccccc2)n1C,5.78
4,O=C(C[n+]1ccccc1)NNc1ccccc1.[Cl-],8.53
5,CCOP(=S)(NN(Cc1ccccc1)C(=O)c1ccccc1)OCC,11.9
6,C=CCN1C(=O)C2(OCCCO2)c2cccc(C)c21,8.84
7,Cc1ccc2sc(N(CCCN(C)C)C(=O)c3ccc(S(=O)(=O)N4CCOCC4)cc3)nc2c1C.Cl,-1.04
8,CCOC(=O)C1=C(C)NC(C)=C(C(=O)OCC)C1c1ccc(O)cc1,14.7
9,COc1ccccc1CNC(=O)C1CCN(S(=O)(=O)c2ccc3c(c2)OCCO3)CC1,10.7
10,CCOC(=O)n1c(=O)n(C)c2ccc(Br)cc21,7.05
11,O=C(c1ccc2ccccc2n1)N1CCN(c2ccccc2)CC1,11
12,COc1cccc(NC(=O)N2CCN(c3nc(-c4cccc(OC)c4)cs3)CC2)c1,10.4
13,O=C1c2ccccc2C(Nc2ccc(Cl)cn2)N1c1cccnc1 (centres unmarked),7.12
14,CN(C)C=NC(=O)/C(C#N)=C/c1ccccc1,7.83
15,COCCCNC(=O)CC(=O)N/N=C\c1ccc(SC)cc1,14.2
16,CN(CC(=O)Nc1ccccc1Cl)C(=O)COC(=O)c1nc(Cl)ccc1Cl,1.42
17,Cc1ccc(NC(=O)CNCC2CCCCC2)cc1S(=O)(=O)N(C)C,6.65
18,COc1ccc(/C=N/Nc2ccccn2)cc1OC,7.46
19,COC(=O)Cc1cc(=O)[nH]c(/N=C(\N)Nc2ccccc2C)n1,4.74

row,SMILES,"hERG current change (%, negative = inhibition) at 1uM [%]"
1,CCc1ccc(-c2cc(C(=O)Nn3cnnc3)c3ccccc3n2)cc1,14.2
2,Cc1cc(C)n(CC(=O)NNC(=O)C2CC(=O)N(Cc3ccccc3Cl)C2)n1 (centres unmarked),3.89
3,CCCN(CCC)CCCNC(=O)c1cn(CC)c2ccc(S(=O)(=O)N3CCc4ccccc4C3)cc2c1=O,-47.9
4,C/C(CC(=O)NCc1ccccc1)=N\NC(N)=S,12.6
5,COCCN(C(=O)CSc1ncc(C(F)(F)F)cc1Cl)c1c(N)n(Cc2ccccc2)c(=O)[nH]c1=O,11.3
6,Cc1cc(C)c2nc(NCCCNC(=S)NCCCN(C)C)c(C#N)cc2c1,15.7
7,CCC(C)NC(=O)CS(=O)Cc1nc(-c2cccc(OC)c2)oc1C (centres unmarked),10.1
8,C=CCn1c(N)cc(=O)nc1SCC(=O)Nc1cccc2ccccc12,7.26
9,O=C1Nc2ccccc2C1=Nc1ccc(Cl)cc1,9.42
10,COc1ccc(CNC(=O)C2(CC3CC(c4ccccc4)=NO3)CCN(C(=O)c3cccc(O)c3)CC2)cc1 (centres unmarked),8.84
11,O=[n+]1c2c(n([O-])c3cc(F)c(F)cc31)CCCC2,9.84
12,COc1cc(/C(C)=N/Nc2ccc(C(=O)O)cc2)cc(OC)c1OC,1.3
13,COc1ccc(OC)c(C(=O)Cn2c3[n+](c4ccc(C(F)(F)F)cc42)CCCCC3)c1.[Cl-],7.45
14,COC(=O)C1N[C@@H]([C@@H](NC(=O)COc2ccccc2)C(=O)Nc2ccc(OC)cc2)SC1(C)C (some centres unmarked),8.15
15,COc1cc(OC)cc(Oc2ccc(S(=O)(=O)N3CCCCC3)cc2[N+](=O)[O-])c1,9.91
16,Cc1ccc(S(=O)(=O)Nc2c(C)nn(C)c2C)c(C)c1,6.73
17,CCCCNC(=O)CNC(=O)c1cccs1,14.4
18,Cc1ccccc1C(=O)NCCN=C1NS(=O)(=O)c2ccccc21,13.5
19,COCCN(C(=O)c1ccc(-c2ccc(Cl)cc2)o1)c1c(N)n(CC(C)C)c(=O)[nH]c1=O,18.7

row,SMILES,"hERG current change (%, negative = inhibition) at 1uM [%]"
1,COc1ccc(CC(=O)N/N=C/c2cccs2)cc1OC,2.89
2,COc1ccc(-c2noc(CCC(=O)NCc3cccnc3)n2)cc1OC,12.9
3,Cc1nnc(SCC2=C(C(=O)[O-])N3C(=O)C(NC(=O)Cc4ccccc4)C3SC2)s1.[Na+] (centres unmarked),11
4,CC(=O)Nc1cccc(OC(=O)N2CCOCC2)c1,11
5,Cc1ccc(S(=O)(=O)N2CCN(C(=O)c3ccc(N4CCCC4)c([N+](=O)[O-])c3)CC2)cc1,6.97
6,O=C(CSc1ccccc1F)NC(=O)NCc1ccco1,4.94
7,CC(=O)NC(C)C(=O)OCC(=O)c1ccc(-c2ccccc2)cc1 (centres unmarked),16.6
8,CCOCCn1c(=NC(=O)c2ccc(S(=O)(=O)N3CCOCC3)cc2)sc2cc(S(N)(=O)=O)ccc21,6.79
9,O=C(Nc1nc2ccccc2[nH]1)c1cccc(S(=O)(=O)N2CCOCC2)c1,3.76
10,CN(C)c1oc(-c2ccccc2Cl)nc1C#N,2.86
11,COc1ccc2[nH]c(C(=O)NCc3ccccc3)cc2c1,8.83
12,CCOC(=O)Cc1csc(NC(=O)CN2C(=O)c3ccccc3S2(=O)=O)n1,3.55
13,N#C/C(=C\c1ccccc1)c1ccccn1,13.3
14,O=C(CSc1nc2ccccc2[nH]1)NCCN1CCCCC1,4.78
15,Cc1cc(C)c(NC(=O)CNC(=O)c2ccc3c(=O)n4c(nc3c2)CCC4)c(C)c1,2.6
16,Cn1ncc(Cl)c1C(=O)Nc1ccc(CN2CCCCC2)cc1,20.5
17,Cc1ccccc1NC(=O)Cc1nc(COC(=O)CCc2ccccc2)cs1,6.6
18,CCC(=O)N1CCc2cc(Br)cc(S(=O)(=O)N3CCCCC3CC)c21 (centres unmarked),6.11
